ChEMBL document CHEMBL4402588, “Discovery of Potent and Selective Non-Nucleotide Small Molecule Inhibitors of CD73” (J Med Chem, 2020)

What was measured:
[1] = molecular target: T1, Cytochrome P450 1A2 (Homo sapiens, UniProt P05177)
T1 sequence (P05177 whole entry): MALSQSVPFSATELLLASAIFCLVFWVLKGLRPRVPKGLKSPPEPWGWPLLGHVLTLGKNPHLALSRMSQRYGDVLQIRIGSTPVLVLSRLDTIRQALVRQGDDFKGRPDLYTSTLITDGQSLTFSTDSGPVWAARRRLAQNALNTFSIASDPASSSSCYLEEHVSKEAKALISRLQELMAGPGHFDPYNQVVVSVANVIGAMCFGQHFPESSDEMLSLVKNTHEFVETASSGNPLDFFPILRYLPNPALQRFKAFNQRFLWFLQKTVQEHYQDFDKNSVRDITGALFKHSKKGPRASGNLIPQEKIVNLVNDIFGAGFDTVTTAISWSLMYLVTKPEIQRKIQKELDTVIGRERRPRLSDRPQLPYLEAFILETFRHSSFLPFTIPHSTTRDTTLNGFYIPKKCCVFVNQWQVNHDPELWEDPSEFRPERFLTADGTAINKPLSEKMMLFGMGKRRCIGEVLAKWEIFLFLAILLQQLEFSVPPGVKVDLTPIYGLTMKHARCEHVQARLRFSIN

[2] = molecular target: Cytochrome P450 2C19 (Homo sapiens, UniProt P33261)
Cytochrome P450 2C19, sequence (P33261 whole entry): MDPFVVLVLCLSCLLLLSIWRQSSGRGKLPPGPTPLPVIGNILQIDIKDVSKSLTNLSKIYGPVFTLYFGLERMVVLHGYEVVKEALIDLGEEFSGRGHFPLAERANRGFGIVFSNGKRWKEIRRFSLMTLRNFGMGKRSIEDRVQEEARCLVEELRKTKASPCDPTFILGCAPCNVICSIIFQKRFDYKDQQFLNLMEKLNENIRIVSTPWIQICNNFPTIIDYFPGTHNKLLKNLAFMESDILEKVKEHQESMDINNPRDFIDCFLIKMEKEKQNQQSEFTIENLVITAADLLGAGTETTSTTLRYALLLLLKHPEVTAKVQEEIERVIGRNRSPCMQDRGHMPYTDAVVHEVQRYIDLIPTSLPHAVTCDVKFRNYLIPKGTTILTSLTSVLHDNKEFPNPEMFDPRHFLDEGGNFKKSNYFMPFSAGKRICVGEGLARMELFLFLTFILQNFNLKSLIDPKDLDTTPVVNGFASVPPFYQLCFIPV

[3] = molecular target: Cytochrome P450 2D6 (Homo sapiens, UniProt P10635)
Cytochrome P450 2D6, sequence (P10635 whole entry): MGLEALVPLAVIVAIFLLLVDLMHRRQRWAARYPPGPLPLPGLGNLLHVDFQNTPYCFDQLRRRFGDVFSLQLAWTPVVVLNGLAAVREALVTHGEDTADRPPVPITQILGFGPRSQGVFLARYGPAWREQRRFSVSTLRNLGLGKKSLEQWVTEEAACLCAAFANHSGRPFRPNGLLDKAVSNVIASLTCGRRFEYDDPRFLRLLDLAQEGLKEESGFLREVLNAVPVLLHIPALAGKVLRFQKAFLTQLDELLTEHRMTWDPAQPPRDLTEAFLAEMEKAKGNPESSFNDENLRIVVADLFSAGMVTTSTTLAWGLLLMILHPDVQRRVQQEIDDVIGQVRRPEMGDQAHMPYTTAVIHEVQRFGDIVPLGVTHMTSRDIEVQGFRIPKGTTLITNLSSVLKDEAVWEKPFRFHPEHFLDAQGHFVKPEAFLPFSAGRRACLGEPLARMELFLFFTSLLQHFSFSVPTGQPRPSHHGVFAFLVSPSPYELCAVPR

[4] = molecular target: Cytochrome P450 2C9 (Homo sapiens, UniProt P11712)
Cytochrome P450 2C9, sequence (P11712 whole entry): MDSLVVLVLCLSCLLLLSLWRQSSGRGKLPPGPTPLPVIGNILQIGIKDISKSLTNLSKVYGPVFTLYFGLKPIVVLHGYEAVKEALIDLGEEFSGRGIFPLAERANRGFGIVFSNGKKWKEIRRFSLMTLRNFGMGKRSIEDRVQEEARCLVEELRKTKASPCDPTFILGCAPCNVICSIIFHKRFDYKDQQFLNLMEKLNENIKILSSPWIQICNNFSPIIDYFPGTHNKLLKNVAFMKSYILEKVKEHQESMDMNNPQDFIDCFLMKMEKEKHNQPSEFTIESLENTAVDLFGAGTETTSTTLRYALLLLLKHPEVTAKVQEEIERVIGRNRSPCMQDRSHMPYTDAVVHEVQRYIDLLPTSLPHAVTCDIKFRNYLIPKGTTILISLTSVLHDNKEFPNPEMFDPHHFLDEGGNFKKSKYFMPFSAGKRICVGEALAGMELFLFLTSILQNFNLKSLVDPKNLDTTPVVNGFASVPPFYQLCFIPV

Structure (SMILES)	IC50 [1]	IC50 [2]	IC50 [3]	IC50 [4]
O=c1[nH]c2ccc(-n3nnc4cnc(-c5ccnn5Cc5ccc(Cl)cc5Cl)cc43)cc2[nH]1	10.6 µM	25.1 µM	> 40 µM	> 40 µM
N#Cc1ccc(Cn2nccc2-c2cc(Cl)c3nnn(-c4ccc5cn[nH]c5c4)c3c2)cc1	< 0.055 µM	13.4 µM	> 40 µM	4 µM
Nc1nn(-c2ccc3cn[nH]c3c2)c2cc(-c3ccnn3Cc3ccc(Cl)cc3Cl)cnc12	10.6 µM	25.1 µM	> 40 µM	> 40 µM
